# Measurements as given in PMC9911399, “Two distinct binding modes provide the RNA-binding protein RbFox with extraordinary sequence specificity”.
# Changes are numbered by the printed parent chain; changes in the protein carry UniProt numbers. The list shows a part of the results.
# T1: RBFOX1 RRM (Homo sapiens, UniProt Q9NWB1 109-208)
# T1 sequence: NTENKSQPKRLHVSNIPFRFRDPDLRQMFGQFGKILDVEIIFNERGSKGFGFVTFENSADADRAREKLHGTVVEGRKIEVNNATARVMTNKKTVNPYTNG
# B1: CUGCAAG (DNA:RNA)
# RNA: GGGAGACCGGAAUUCAGAUUGUCCCUGCAAGUUAAAUCCCGUCGUAGCCACCA
# DNA 1: CAATCTGAATTCCGGTCTCCC
# DNA 2: TGGTGGCTACGACGGGATT
# B2: GCCGUCU (DNA:RNA)
# RNA: GGGAGACCGGAAUUCAGAUUGUCCGCCGUCUUUAAAUCCCGUCGUAGCCACCA
# DNA 1: CAATCTGAATTCCGGTCTCCC
# DNA 2: TGGTGGCTACGACGGGATT
# B3: GCCCCUU (DNA:RNA)
# RNA: B2 RNA with G28C, U29C, C30U
# DNA 1: CAATCTGAATTCCGGTCTCCC
# DNA 2: TGGTGGCTACGACGGGATT
# B4: CGGGCUU (DNA:RNA)
# RNA: B1 RNA with U26G, C28G, A29C, A30U, G31U
# DNA 1: CAATCTGAATTCCGGTCTCCC
# DNA 2: TGGTGGCTACGACGGGATT
# B5: AAUGGAA (DNA:RNA)
# RNA: B1 RNA with C25A, U26A, G27U, C28G, A29G, G31A
# DNA 1: CAATCTGAATTCCGGTCTCCC
# DNA 2: TGGTGGCTACGACGGGATT
# B6: UUCCGGG (DNA:RNA)
# RNA: B1 RNA with C25U, G27C, A29G, A30G
# DNA 1: CAATCTGAATTCCGGTCTCCC
# DNA 2: TGGTGGCTACGACGGGATT
# B7: CCUUCGU (DNA:RNA)
# RNA: B2 RNA with G25C, C27U, G28U, U29C, C30G
# DNA 1: CAATCTGAATTCCGGTCTCCC
# DNA 2: TGGTGGCTACGACGGGATT
# B8: GUAGGCG (DNA:RNA)
# RNA: B2 RNA with C26U, C27A, U29G, U31G
# DNA 1: CAATCTGAATTCCGGTCTCCC
# DNA 2: TGGTGGCTACGACGGGATT
# B9: UCAUGCU (DNA:RNA)
# RNA: B2 RNA with G25U, C27A, G28U, U29G
# DNA 1: CAATCTGAATTCCGGTCTCCC
# DNA 2: TGGTGGCTACGACGGGATT
# Biological target: T1, RBFOX1 RRM
# Assay: EMSA; HiTS-Eq, 1 nM pool, 10 min; buffer printed only for the single-RNA assays: 10 mM Tris pH 7.5, 150 mM NaCl, 3.4 mM EDTA, 0.001% NP-40, 30 C
# Details: tags: His6 N-terminal (pET28a); label: 5' 32P
# Method in brief: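 Purified wild-type or mutant RbFox RRM at increasing concentrations was equilibrated with 1 nM of 5′-radiolabelled RNA carrying 7 randomized nucleotides for 10 min in 50 µL. Unbound RNA was separated by 8% native PAGE and sequenced. Relative association constants came from read-count changes of each RNA species compared with the control reaction, normalised to the cognate motif.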
row,Binder,binding signal
1,B1,0.0259 KA relative to UGCAUGU
2,B2,0.0102 KA relative to UGCAUGU
3,B3,0.00548 KA relative to UGCAUGU
4,B4,0.0317 KA relative to UGCAUGU
5,B5,0.00264 KA relative to UGCAUGU
6,B6,0.00531 KA relative to UGCAUGU
7,B7,0.0154 KA relative to UGCAUGU
8,B8,0.0146 KA relative to UGCAUGU
9,B9,0.00651 KA relative to UGCAUGU
